In the supplement of paper PMC10037445:
Whole data set: some 2,900 compounds, median “NF-kB SEAP reporter activity, fold change vs agonist alone” near 0.99, cut for the highest 2% near 2.6. This is one part of the list.

Columns and labels:
[1] = tested on: RAW-Dual; test: NF-kB SEAP reporter activity, fold change vs agonist alone; cytotoxicity flag (confluency mask): cytotoxic (confluency <70% of control); higher = enhanced NF-kB activity
Procedure, shortened: (§1)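 Supernatant from RAW-Dual macrophages was read after 20 hours for IRF by QuantiLuc luminescence and for NF-κB by QuantiBlue absorbance at 620 nm. The cells (50,000 cells/well in DMEM, 384-well plates, 37 °C, 5% CO2) had received 50 nL of library stock by pin tool and, 1 h later, a PRR agonist. Reporter activity is expressed relative to agonist-alone wells as fold change, and wells were flagged cytotoxic if IncuCyte confluency was under 70% of agonist controls in both mask sets.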

[2] = tested on: RAW-Dual; test: NF-kB SEAP reporter activity, fold change vs agonist alone; higher = enhanced NF-kB activity; conditions: library stock concentration (final ~1000-fold dilution): 10 mM
Procedure, shortened: as §1

[3] = tested on: RAW-Dual; test: NF-kB SEAP reporter activity, fold change vs agonist alone; cytotoxicity flag (confluency mask): not cytotoxic; higher = enhanced NF-kB activity
Procedure, shortened: as §1

[4] = cytotoxicity flag (confluency mask): not cytotoxic, agonist: Imiquimod (TLR7) […]
[5] = cytotoxicity flag (confluency mask): not cytotoxic, agonist: MPLA (TLR4) […]
[6] = agonist: ODN 1826 (TLR9) 0.5 ug/mL
[7] = agonist: Pam2CSK4 (TLR2/6) 0.1 ug/mL
[8] = agonist: Pam3CSK4 (TLR2/1) 0.1 ug/mL

Compound: CN(C)CC1CCn2cc(c3ccccc32)C2=C(C(=O)NC2=O)c2cn(c3ccccc23)CCO1.Cl (centres undefined) (library stock concentration (final ~1000-fold dilution): 10 mM)
- NF-kB SEAP reporter activity ([1]; agonist: LPS (TLR4) 0.1 ug/mL): 3.03

Compound: Cl.Clc1cccc(-c2nnnn2Cc2cccnc2)c1Cl
- NF-kB SEAP reporter activity [2, 4]: 1
- NF-kB SEAP reporter activity [2, 5]: 1.06

Compound: Cl.Clc1cccc(-c2nnnn2Cc2cccnc2)c1Cl (library stock concentration (final ~1000-fold dilution): 10 mM)
- NF-kB SEAP reporter activity ([3]; agonist: LPS (TLR4) 0.1 ug/mL): 1.07
- NF-kB SEAP reporter activity [3, 6]: 0.95
- NF-kB SEAP reporter activity [3, 7]: 1.04
- NF-kB SEAP reporter activity [3, 8]: 0.958

Compound: COc1nc(-c2ccc3c(c2)OCO3)n(-c2ccc(NC(=O)CSc3ccccc3)cc2)n1
- NF-kB SEAP reporter activity [2, 4]: 0.715
- NF-kB SEAP reporter activity [2, 5]: 1

Compound: COc1nc(-c2ccc3c(c2)OCO3)n(-c2ccc(NC(=O)CSc3ccccc3)cc2)n1 (library stock concentration (final ~1000-fold dilution): 10 mM)
- NF-kB SEAP reporter activity ([3]; agonist: LPS (TLR4) 0.1 ug/mL): 1.21
- NF-kB SEAP reporter activity [3, 6]: 0.813
- NF-kB SEAP reporter activity [3, 7]: 0.809
- NF-kB SEAP reporter activity [3, 8]: 0.821

Compound: CCOC(=O)C(CCc1ccccc1)NC1CCc2ccccc2N(CC(=O)O)C1=O.Cl (centres undefined)
- NF-kB SEAP reporter activity [2, 4]: 0.99
- NF-kB SEAP reporter activity [2, 5]: 0.958

Compound: CCOC(=O)C(CCc1ccccc1)NC1CCc2ccccc2N(CC(=O)O)C1=O.Cl (centres undefined) (library stock concentration (final ~1000-fold dilution): 10 mM)
- NF-kB SEAP reporter activity ([3]; agonist: LPS (TLR4) 0.1 ug/mL): 0.997
- NF-kB SEAP reporter activity [3, 6]: 0.98
- NF-kB SEAP reporter activity [3, 7]: 1.03
- NF-kB SEAP reporter activity [3, 8]: 0.994

Compound: O=C(Nc1ccc(-c2ccnc(Nc3ccc(N4CCOCC4)cc3)n2)cc1)C1CCCN1 (centres undefined)
- NF-kB SEAP reporter activity [2, 4]: 1.6
- NF-kB SEAP reporter activity [2, 5]: 2.46

Compound: O=C(Nc1ccc(-c2ccnc(Nc3ccc(N4CCOCC4)cc3)n2)cc1)C1CCCN1 (centres undefined) (library stock concentration (final ~1000-fold dilution): 10 mM)
- NF-kB SEAP reporter activity ([3]; agonist: LPS (TLR4) 0.1 ug/mL): 1.86
- NF-kB SEAP reporter activity [3, 6]: 0.272
- NF-kB SEAP reporter activity [3, 7]: 1.05
- NF-kB SEAP reporter activity [3, 8]: 1.67

Compound: CCS(=O)(=O)Nc1ccc2c(c1)/C(=C(/Nc1ccc(CN3CCCCC3)cc1)c1ccccc1)C(=O)N2
- NF-kB SEAP reporter activity ([2]; cytotoxicity flag (confluency mask): cytotoxic (confluency <70% of control), agonist: Imiquimod (TLR7) […]): 0.214
- NF-kB SEAP reporter activity ([2]; cytotoxicity flag (confluency mask): cytotoxic (confluency <70% of control), agonist: MPLA (TLR4) […]): 0.227

Compound: CCS(=O)(=O)Nc1ccc2c(c1)/C(=C(/Nc1ccc(CN3CCCCC3)cc1)c1ccccc1)C(=O)N2 (library stock concentration (final ~1000-fold dilution): 10 mM)
- NF-kB SEAP reporter activity ([1]; agonist: LPS (TLR4) 0.1 ug/mL): 0.196
- NF-kB SEAP reporter activity [1, 6]: 0.197
- NF-kB SEAP reporter activity [1, 7]: 0.0873
- NF-kB SEAP reporter activity [1, 8]: 0.163

Compound: COc1ccc2[nH]c([S+]([O-])Cc3ncc(C)c(OC)c3C)nc2c1 (centres undefined)
- NF-kB SEAP reporter activity [2, 4]: 1.09
- NF-kB SEAP reporter activity [2, 5]: 0.941

Compound: COc1ccc2[nH]c([S+]([O-])Cc3ncc(C)c(OC)c3C)nc2c1 (centres undefined) (library stock concentration (final ~1000-fold dilution): 10 mM)
- NF-kB SEAP reporter activity ([3]; agonist: LPS (TLR4) 0.1 ug/mL): 1.09
- NF-kB SEAP reporter activity [3, 6]: 1.15
- NF-kB SEAP reporter activity [3, 7]: 1.36
- NF-kB SEAP reporter activity [3, 8]: 1.2

Compound: Cc1cn(C2CC(O)C(CO)O2)c(=O)[nH]c1=O (centres undefined) (library stock concentration (final ~1000-fold dilution): 10 mM)
- NF-kB SEAP reporter activity ([3]; agonist: LPS (TLR4) 0.1 ug/mL): 1.16
- NF-kB SEAP reporter activity [3, 6]: 1.03
- NF-kB SEAP reporter activity [3, 7]: 1.12
- NF-kB SEAP reporter activity [3, 8]: 1.11

Compound: Cc1cn(C2CC(O)C(CO)O2)c(=O)[nH]c1=O (centres undefined)
- NF-kB SEAP reporter activity [2, 4]: 0.952
- NF-kB SEAP reporter activity [2, 5]: 1.03

Compound: COc1cc2ncnc(Nc3ccc(O)cc3)c2cc1OC
- NF-kB SEAP reporter activity [2, 4]: 1.05
- NF-kB SEAP reporter activity [2, 5]: 1.16

Compound: COc1cc2ncnc(Nc3ccc(O)cc3)c2cc1OC (library stock concentration (final ~1000-fold dilution): 10 mM)
- NF-kB SEAP reporter activity ([3]; agonist: LPS (TLR4) 0.1 ug/mL): 0.948
- NF-kB SEAP reporter activity [3, 6]: 0.826
- NF-kB SEAP reporter activity [3, 7]: 0.971
- NF-kB SEAP reporter activity [3, 8]: 0.867

Compound: NOCC(=O)O
- NF-kB SEAP reporter activity [2, 5]: 1

Compound: NOCC(=O)O (library stock concentration (final ~1000-fold dilution): 10 mM)
- NF-kB SEAP reporter activity ([3]; agonist: LPS (TLR4) 0.1 ug/mL): 1.41
- NF-kB SEAP reporter activity [3, 6]: 0.89
- NF-kB SEAP reporter activity [3, 7]: 1.24
- NF-kB SEAP reporter activity [3, 8]: 1.08
